Reference: PubChem BioAssay AID686971 (National Center for Advancing Translational Sciences (NCATS), 2013)
Screen size: about 360,000 compounds; about 7,500 (2.1%) were called active. Inconclusive means that the source gave no clear call. Such entries were picked first, then a sample of the others. Calls follow the shape of the dose curve; as a rule, active = well fitted cell-killing curve with a large enough effect; inconclusive = small, poorly fitted or top-dose-only effect, or effect the other way, or another doubt; inactive = no such curve, though single readings can be large or run the other way. Potencies of inconclusive entries are left out as doubtful fits.

Experiment: qHTS for induction of synthetic lethality in tumor cells producing 2HG: qHTS for the HT-1080-IDH1KD cell line;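 as to activity, negative = toxicity: 0% = DMSO wells and -100% = cell-free medium wells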
Settings: HT-1080 IDH1 knockdown viability, ATP luminescence, 48 h; activity, negative = toxicity: at 46.1 µM (top of the series) unless noted
Method in brief: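 After a 2 h attachment period, IDH1KD HT-1080 cells took pin-transferred compound for 48 h at 37 °C; ATP-based luminescence after 10 min room-temperature reagent incubation reported viability.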
Potency is read from the fitted curve at half-maximal effect; tags tell the direction and shape of the fitted curve.

| Structure (SMILES) | Potency | activity, negative = toxicity |
| --- | --- | --- |
| COc1cc(CNC2CCCC2)cc(Cl)c1OCc1ccccc1Cl | inconclusive [cytotoxic, single point] | – |
| CCN1c2ccccc2N(C)C1(C)c1ccccc1 (configuration not stated) | inconclusive [cytotoxic, partial curve] | – |
| COc1ccc(C(=O)CCN2CCCCCC2)cc1 | active: 10 µM | – |
| Cc1nc2ccccc2c(=O)n1/N=C/c1ccc2ccccc2c1O | inconclusive [cytotoxic, partial curve] | – |
| COc1cc(C)c(CN2CCC(Cc3ccccc3)CC2)cc1C | – | inactive: -7.11% |
| Cc1cc(C)n(CC(O)Cn2c3ccc(Cl)cc3c3cc(Cl)ccc32)c(=O)n1 (configuration not stated) | inconclusive [cytotoxic, single point] | – |
| CCc1nc(C)cn1S(=O)(=O)c1cc([N+](=O)[O-])ccc1Cl | active: 3.26 µM | – |
| CC(C)OC(=O)c1ccc(NC(=O)Cn2c(-c3nonc3N)nc3ccccc32)cc1 | inconclusive [cytotoxic, single point] | – |
| COc1ccc(/C=N/NC(=O)c2ccncc2)cc1COc1ccc(NC(C)=O)cc1 | inconclusive [cytotoxic, single point] | – |
| CCNC1CCC(Nc2ccnc3cc(Cl)ccc23)CC1 (configuration not stated) | inconclusive [cytotoxic, single point] | – |
| Cc1ccc(NS(=O)(=O)c2cc(C(=O)NCCSc3ccc(C)cc3)ccc2C)cc1 | inconclusive [cytotoxic, single point] | – |
| C=CC[C@H](CC(=O)OC(C)(C)C)C(=O)OC[C@H]1CCCN1C(=O)[C@@H](CC=C)CC(=O)N(CCO)Cc1ccccc1 | – | inactive: -11.8% |
| COCCN(C(=O)COC(=O)c1ccccc1Nc1ccccc1)c1c(N)n(Cc2ccccc2)c(=O)[nH]c1=O | inconclusive [cytotoxic, single point] | – |
| CCN1C(=O)[C@H]2[C@@H](c3ccc(-c4ccc(Cl)c(Cl)c4)cc3)N[C@@](Cc3ccccc3)(C(=O)OC)[C@H]2C1=O | – | inactive: -0.0246% |
| CCC(NC(=O)c1[nH]c(C)c(C(C)=O)c1C)c1ccc(Br)cc1 (configuration not stated) | inconclusive [cytotoxic, partial curve] | – |
| Cc1ccc(Cc2c(C)nc3nc(SCC(=O)NCc4ccco4)nn3c2C)cc1 | active: 2.59 µM | – |
| O=S(CC(O)(c1ccccc1)c1ccccc1)CC(O)(c1ccccc1)c1ccccc1 | inconclusive [cytotoxic, single point] | – |
| COc1ccc(-c2cnnc(N/N=C/c3ccc(O)c(O)c3)n2)cc1 | inconclusive [cytotoxic, single point] | – |
| O=C(NCc1ccccc1)C1CCCN(C(=O)c2ccc(F)cc2)C1 (configuration not stated) | – | inactive: 1.22% |
| Cn1c(SCC(=O)N/N=C/c2ccc([N+](=O)[O-])s2)nnc1-c1ccccc1 | active: 16.4 µM | – |
| COc1cccc(C(=O)C(=O)N2CCN(C(=O)OCc3ccccc3)CC2)c1 | – | inactive: 18.2% |
| Cc1[nH]c2ccc(F)cc2c(=O)c1SC(F)(F)C(F)C(F)(F)F (configuration not stated) | inconclusive [cytotoxic, single point] | – |
| CC(=O)Nc1ccc(-c2ccnc3c2CC(C(=O)NCc2ccco2)O3)cc1 (configuration not stated) | inconclusive [cytotoxic, full curve] | – |

| Structure (SMILES) | Potency | activity, negative = toxicity |
| --- | --- | --- |
| O=C1Oc2ccccc2C(=O)/C1=C/N1CCN(c2ccccc2F)CC1 | inconclusive [cytotoxic, partial curve] | – |
| CN(C1CCCCC1)S(=O)(=O)c1ccc(NC(=O)C2CCCCC2)cc1 | inconclusive [cytotoxic, single point] | – |
| CCc1cccc(CC)c1N(COC)C(=O)Cn1nnc2ccccc21 | – | inactive: -4.26% |
| Cc1ccc2cccc(S(=O)(=O)Nc3ccc4c(c3)OCO4)c2n1 | – | inactive: -3.33% |
| O=C(NCc1ccc(F)cc1)C(=O)NCC1OCCN1S(=O)(=O)c1cccs1 (configuration not stated) | – | inactive: -1.83% |
| O=C1NC(c2ccc(-c3ccccc3[N+](=O)[O-])o2)C(C(=O)c2ccc(Cl)cc2)C(O)(C(F)(F)F)N1 (configuration not stated) | inconclusive [cytotoxic, single point] | – |
| CCC(OCC(O)CN1CCN(CCN2C(=O)c3cccc4cccc(c34)C2=O)CC1)c1ccccc1 (configuration not stated) | – | inactive: -23% |
| Nc1c(C(=O)Nc2ccccc2)sc2ncc([N+](=O)[O-])cc12 | inconclusive [cytotoxic, single point] | – |
| Cc1ccc2c(c1)c1c(n2CC(O)Cn2nc(C)c(Br)c2C)CCCC1 (configuration not stated) | inconclusive [cytotoxic, single point] | – |
| COc1ccc(CCN(C)Cc2ccc(OCc3ccccc3)c(OC)c2)cc1OC | inconclusive [cytotoxic, single point] | – |
| COCCOC(=O)c1c(C)nc(SCC(=O)Nc2ccc(C)cc2)c(C#N)c1-c1ccco1 | – | inactive: 1.66% |
| COc1ccc(CN(C(=O)CSc2nnc(-c3c[nH]c4ccccc34)o2)c2ccc(F)cc2)cc1OC | inconclusive [cytotoxic, single point] | – |
| CCC1C/C(=C\c2cc(OC)c(OC)cc2OC)C(=O)/C(=C/c2cc(OC)c(OC)cc2OC)C1 (configuration not stated) | active: 20.6 µM | – |
| CCOC(=O)c1cnn(C)c1NC(=O)c1ccc(Cl)cc1Cl | – | inactive: 3.43% |
| CC(C)c1ccc(Nc2nc(Cl)nc(NCc3ccco3)n2)cc1 | inconclusive [cytotoxic, single point] | – |
| Cc1nc2ccccc2c(=O)n1/N=C/c1ccccc1O | inconclusive [cytotoxic, single point] | – |
| CC(OC(=O)c1nc(Cl)ccc1Cl)C(=O)Nc1ccccc1F (configuration not stated) | – | inactive: 5.68% |
| N#Cc1c(N2CCCCC2)nc(N)c2c(N)nc(SCC(=O)O)cc12 | inconclusive [cytotoxic, single point] | – |
| O=C(Nc1ccc(Oc2ccccc2)cc1)c1ccc2sc([C@H]3C[C@H](O)[C@@H](CO)O3)nc2c1 | active: 2.59 µM | – |
| CC(C)c1ccc2[nH]c3c(c2c1)CCCC3=O | inconclusive [cytotoxic, partial curve] | – |
| COCCn1c(=NC(=O)c2cc(-c3cccs3)nc3ccccc23)sc2cc(S(N)(=O)=O)ccc21 | inconclusive [cytotoxic, partial curve, poor fit] | – |
| c1ccc(Nc2nnc(-c3cccc4ccccc34)o2)cc1 | inconclusive [cytotoxic, single point] | – |
| Cc1cc(Cl)cc(Cl)c1OCCCCN(C)C | inconclusive [cytotoxic, single point] | – |

| Structure (SMILES) | Potency | activity, negative = toxicity |
| --- | --- | --- |
| COc1ccc(-c2n[nH]c(C)c2-c2ccc(Cl)cc2)c(O)c1OC | inconclusive [cytotoxic, single point] | – |
| Cc1cc(C(=O)N/N=C/c2cccc(OC(=O)c3cccc(Br)c3)c2)n[nH]1 | – | inactive: 1.17% |
| COCCn1c(SCC(=O)Nc2ccc(OC)c(S(N)(=O)=O)c2)nc2ccccc2c1=O | – | inactive: -4.97% |
| CCc1ccc(NC(=O)CSc2nc(NS(=O)(=O)c3ccccc3)cc(=O)[nH]2)cc1 | inconclusive [cytotoxic, single point] | – |
| CC(=O)n1cc(N(C(=O)CCl)c2ccc([N+](=O)[O-])cc2)c2ccccc21 | inconclusive [cytotoxic, partial curve, poor fit] | – |
| COCCN(C(=O)/C=C/c1ccccc1)c1nnc(-c2cccnc2)s1 | – | inactive: -10.3% |
| C=CCOC(=O)C1=C(C)NC(C)=C(C(=O)OCC=C)C1/C=C/c1ccccc1 | active: 18.4 µM | – |
| CCCCC[C@@H]1C=C(C(=O)OCC)[C@H](c2ccccc2)N1S(=O)(=O)c1ccc(C)cc1 | inconclusive [cytotoxic, partial curve, poor fit] | – |
| Cc1cccc(CN(CC(=O)N/N=C/c2cccs2)S(=O)(=O)c2ccc(Cl)cc2)c1 | inconclusive [cytotoxic, single point] | – |
| O=C(NCC1CCCO1)c1cc2c([nH]c3ccccc32)c(-c2ccc(F)cc2)n1 (configuration not stated) | inconclusive [cytotoxic, single point] | – |
| Cc1ccccc1C(=O)c1cccn1CC(=O)NCCN1CCN(c2cccc(C)c2C)CC1 | active: 20.6 µM | – |
| COc1ccc(C(=O)/C=C/c2cc(OC)c(O)c(OC)c2)c(F)c1 | inconclusive [cytotoxic, single point] | – |
| COc1cccc(-c2cnc(C(O)c3ccc(Cl)c(Cl)c3)[nH]2)c1 (configuration not stated) | – | inactive: -18.5% |
| COc1ncc(-c2ccc(N3C(c4ccsc4)=Cc4ccccc4C3CC(C)=O)cc2)cn1 (configuration not stated) | – | inactive: -8.41% |
| N/C(CCS(=O)(=O)c1ccc(Cl)cc1)=N\OC(=O)c1ccccc1C(F)(F)F | active: 20.6 µM | – |
| Cc1ccc(/C(C#N)=C\c2ccc(N3CCOCC3)o2)cc1 | active: 2 µM | – |
| C#CCOCCOCCOCCNc1nc(N2CCN(C(=O)CCCCCCCCCCNC(=O)Cn3cc(C[C@@H](C)O)nn3)CC2)nc(N2CCN(C(=O)CCCCCCCCCCNC(=O)[C@H](CCCN=C(N)N)n3cc(C[C@@H](C)CC)nn3)CC2)n1 | inconclusive [cytotoxic, single point] | – |
| CC1(C)CC(N2CCCC2)=CC(=[N+]2CCCC2)C1 | inconclusive [cytotoxic, partial curve] | – |
| c1ccc(-c2cn(-c3ccccc3)c3[n+]2CCCS3)cc1 | inconclusive [cytotoxic, single point] | – |
| CC[C@]12c3[nH]c4ccc(Cl)cc4c3CCN1C(=O)[C@@H](CC(=O)NCC13CC4CC(CC(C4)C1)C3)C[C@@H]2C(=O)N1CCN(C(=O)C2CC2)CC1 | active: 23.1 µM | – |
| NC(=O)c1ccc(-c2ccc(N3C(c4ccsc4)=Cc4ccc(F)cc4C3CC(=O)c3ccco3)cc2)cc1 (configuration not stated) | inconclusive [cytotoxic, partial curve] | – |
